From PMC5402319

What follows are sequences tested against T1, His6-σ8 (SigB-like sigma factor) (Streptomyces avermitilis) (UniProt Q82PY0) (assay: EMSA). Conditions: EMSA with 0.15 nM DIG-labeled probe, 0.25-1 uM His6-σ8, ~300-fold excess unlabeled competitor; buffer, salt, pH and temperature not given (as in Sun et al. …).
T1 sequence: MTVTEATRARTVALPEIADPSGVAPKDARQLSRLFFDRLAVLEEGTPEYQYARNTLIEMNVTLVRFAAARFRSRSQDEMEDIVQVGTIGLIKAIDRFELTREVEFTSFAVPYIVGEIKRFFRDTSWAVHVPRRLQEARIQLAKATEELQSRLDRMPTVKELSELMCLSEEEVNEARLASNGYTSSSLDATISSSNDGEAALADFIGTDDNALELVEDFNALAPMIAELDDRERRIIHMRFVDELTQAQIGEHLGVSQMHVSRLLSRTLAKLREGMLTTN
With “ATCGCTCTCTTCCCAGGCGCCCCATGGCATCTGTGTGCGGCGCCCCATCTCCGTGTGCCCGGACACACCGGGAATGCTGGCCCCTTAGGATCCGTTGGGTGGGGTGAGAGTTCTGAGAGAGGCTCCCACCGGTAGTACGAAGCAGTCTCCAGAGACGAGGAATCAAGCCGTGAGCGAC (double strand) [trxB1p]” the binding was “no binding”.
For “AGTGCTGTCGTCGCTCATCGCCTCTCCTTCGCAGGTCGATGCCGTTCATGGGCCCGTCATCCGTTGGATGACATGCAGCTTGTCGTCGTTCAGATGACATGCTACAACGGAGTCAGGTGAAGCGCATTGGCAGCAACTGCCTGAACTCATCTGGAGGTGTTTACCGTGTTGATG (double strand) [hsp18_2p]”, the binding was “no binding”.
With “GAGAAGCCGAGCACCTGGGCGTCACGGTCGGCGAACTCGTCGTTCAGCTTGCCGAAGGCCGCGATCTCGGTCGGGCACACGAAGGTGAAGTCCTTGGGCCACGCGAAGATGACCTTCCACTGACCCTCGTAGGTCTTGTGGTTGATCTGCTGGAACTCATTGCCCTTCTCCAGCG (double strand) [oxyR_ahpCD_int]” the binding was “binds”.
For “CGAACTGGATCATGAGGTGTCCCTTGCCCGGCCTGCATATCGTCATGCAGAGTTCTCGGTGTCTGAATAGATTGTCAATGGTCCGGCGTTAAGCGCTGGTTACTTATGACCGCCAGGCAAGATCCGATGTCCGGGTTGAGGGGAGTTTGCGCGTGATGTCGTCTCGGATCGTGGATACGTCGACCGTGGAAGTGAGCCCCGCGTCGACCGGGATCGTGGTCCTCGACGGCTGTGGAATC (double strand) [opuBA1p]”, the binding was “binds”.
“CGCAAGATCTATGTCGACCTCACGAAGGAGCAGATCAAGGACTCCCCGGAGTTCGACAAGGACAAGCACGCCGGTGACGCCGGCTACCACGAGCAGGTCGGCAGCTACTACCAGAGCCACCGACGCGTCTGACCTCACAGCGCCACCCCGCAAGTGGGGCCGACCAAAGTGTCTTTGGTCGGCCCC (double strand) [sig8p]” was tested, and the binding was “binds”.
“AGACTACCGCCTCTTCAGACCCCCGATTCGGCCACCCCACGTCAAGAATCCATTACAAAGCGTCTGCGACTCATCGGCAGAGCGTCCACCAGTCGTTCACAACCGGCCACGCATTGAGGCCAATCGGTGACCAGAATCCTCTTGACCGACCGAGAACCGGCTGGATTGGATCAGTAGACAAAGGTGCCGGACTTCCGCGCACCCCGCCATCTCCATGCTCCCCACACCATCCGAGCCCGGAACGGGAATTGTGACTTCTACCGCGAAGAGCAGCAGGTCAAGGACGAGAAACCC (double strand) [opuBC1p]” was tested, and the binding was “binds”.
In the case of “CGGTGGCTGAGTTCTGGTTGTCGGCGACCGGGGCGCCGGACTCGGTCGTAAGCACGCGCTTCGACATCGTGCACCTTCCATGCGAGGGGCAGCGGAAACCTTCTTCCGCTTCGTGGAGCCTAGGTATGGGACCTTCTAGGCGTCAACACTTTGTTGAAGTTGGTTCCGGGCGGCGCCACCGCTTGGGCGCGACGGGACAGATGTCAGCGGCGGCGCCGCCCGGAGGTCTCAGAGCCGCGCGCCCGAGAGGCGCTCCACGGACCT (double strand) [katA3p]”, the binding is reported as “no binding”.
With “ATCAACATCGTGAAACACCTCCAGGGTTCAAGGTCAGGCAGTGCTGCCAATGCGTTCACCTGACATCGTTGTAACATGTCATCCAAGCGATGACAAGTTTGACGTCATCAAGATGACGACATGGCCATTGGAGGCCCGATGACCAGGGACGAT (double strand) [hsp18_1p]” the binding was “no binding”.
“TTAGTCGTGCCCAGGTCGATGCCGACCGCACGTGCCATTTCAATTCCTCCAGCAATGACTTGAGTGGAACGGACTCAAGTGTGCATCACCCAAGTCGCTGGGTCAACAGACCTGAGTCGAGCCGACTCAAGTCTTATCCGCTCCT (double strand) [dnaK1p]” was tested, and the binding was “binds”.
In the case of “GCTCCCAGGTGAACTCTGGGCGACGAGTGTTCGAGGTCGCACGCCGATGGCTGTGGTCAGGTGGGACGACATGCCTAACCTGGATGCATGGAC (double strand) [phoRp]”, the binding is reported as “no binding”.
For “AATCAAGCATTCCGCACCGGGAGCGCTGGTGAGGAGCAGGGAATCTTTGCAGTCTCGTGAACACGGGAATCTCCACGGCCGCGGGAACGCTGAAGGCGGGGATGACCGGACTTGTGGTGTGCGTGGTGGTGCTCGTGGTGGCGAGCGCGTACGGAGTGCTGCATCGGCGGCGGAGCGGGAGAGTGAGA (double strand) [trxA4p]”, the binding was “no binding”.
With “GTGGCGTTCCTCCTCGCTGCGGGCATGCCGGTCGGGACGGCGTGGAGCGCCCTCCAAGACATGCGAACGCCGGAGCGAGCCGCTCCATTTCCCCTTTGCTCATCTTTGCCGAATCATTACCGCGGATCGCTCAACCGTTCGACGAAAGGGTGCGTGAACGCCGGACGTCCCGGAAGCCGGGGCCGCATACCCTCGTACCCATGACAGCCCGCGCAGCCTCCCGCCCCGTGGGAACGGTGACGCGCGGGACCACGAACCCGAAC (double strand) [mshAp]” the binding was “binds”.
In the case of “GCCATACGGTGTCGTCGCTGGTCATGCGTACGAGGGTACGGGGAGCAGGGGGCAAAGGGGAGGCAACGGCAACCTGCTTGTAACCACGAACCCCCTGTTGCGCTACGCGCGTTGAATCTAGGCTGCGCGAACCACCGCCTTGGCACAGCCTTTACACAACTCACGCAGGGGGGCCCATGCCGCCGACGTACCGGCACAGACGTATCCACCGCATCCTCTCC (double strand) [mshDp]”, the binding is reported as “binds”.
With “CTCTCGGAACGTTGGAAAACGGCTTCCGGCCCCGTCCGTAACGGACAGGAACCGACGACCGCCGACTTGGGGATGGGCCGACGGCGCGGGTGGGGCCGGGAAGATGCACAGCGCCGTAAACGGCGTCCGTATTCCCTCCTCGGCTGTCACCTCTTAGGTCATCGCGCAGTGCCGAGGAGCGTTACGCCCAATCCGCGTGGCCCGAGTCACACCCCGTAACCACTCAAAAACGACTAGATGCGGTCATAGGTGGTCAACGATG (double strand) [hrdB]” the binding was “no binding”.
In the case of “GGTGTACGGAGCCTTCTGGGGTGCCTGGGTCACGAGCGTCCTCCCGTCAAAGAAGAGGGTCGTTAGGTCGCTTCGCTCACCCCAGCAGTCAACTCCGCCGACGGGACGTCGGCAACATTTGGACGGGATCCAACTTCGGTTCGGTTCTGGGCGGAGGTGATCCCGGGGCGAGACGGGACGCGTACCCCCTCAGCTCCGGTTCAACTCGAACCAGACCACCTTTCC (double strand) [katA2p]”, the binding is reported as “no binding”.
For “TTCGGACAACTGACGGTCGTCGCCTGCATCGTGCTCATGCCGCCCACGCTCCCTTCACGTCCTCGGGCTGGTCGTAGGTGACCACCAGCTCTCCGTGCTCGGCGTCGACGCGGACCGTCGCGCCGTCCTGGACGTCGCCGCGCAGCAGGGCGCGTCCGACCAGTGTCTCGACCTCGTGGGAGATGTAGC (double strand) [trxA2p]”, the binding was “no binding”.
In the case of “GCGGAAGGCGGCTGACCAGAGGGCCCTGCAAGAAACCAGCATAGCGGTTTGTTTGTGGCGCCCGTCACCACTTCGCCGACGCGGTACCCCCGGAGGCCAGGCACCGGTCACTGCCGCCGCCCGCGCTGCCCGCTGCCGCCGCCGAGCCGTACCGCGCGGCTCGGGCGTCGCGCATGCCGTCAGGCCCCCGGCACCTCCCTG (double strand) [avaR2p]”, the binding is reported as “no binding”.
For “TGGTGTGTGGTCTGCGTCATGGCGGCAGGGTCGCTCCGTTCCGCAAGGTGCGCAATAGTTGGCTTGTCCGCTGGACAATGTGTTCAGTGCACCGCCCATGGCGTGGGGCTGCATGTACAGGATGACCACTGG (double strand) [sav_5148p]”, the binding was “binds”.
With “TGACCCCTCCCGCCACTTCCCCCGGCACTTTCCATCGCTTCTCGCCGTGAATTGCAGAGATTCCCCACACACTTATCCCGTTATTAATTCAGAACAGCTTCCCGCATTCTTCTGCCCGCTTTCTTTCGTGCTAAACGCAAAGATTTCGCGAACACCAACCGGCTTAATTCGGGCAGGTCCCGCACGGGTCGTCCACTTGTGATCGACTCCACATCGCACCCCTTTCCTCCCGTATTTTCCGGACAAAATGGGGGTTATCGACGC (double strand) [ectAp]” the binding was “binds”.
“TGGACCCACCCTACGAGGGGTCTCCCCCTCACTTGCCTCGCGGCCTGCTGTCATCTCGTCGTCGAGCACGTGATCGGCCCGAGTGCTCATGGTGTCCTCCCGTGAGTGCCCCGGTCGGCGTATCGGTGGCGGAGCGGGACACGGGTGCGGGAGCTCCGCATCAGGCGGCCGTCCGGAGATCGGATCGGCAGTCCCGGCAGAGACCGGGGTCAGGGGCGCGGAAGGCGCGGTCGCAGCCGTCACAGGTCT (double strand) [mshBp]” was tested, and the binding was “no binding”.
For “GGACTCGCTGTTCTGATTGTCGGCTACCGGTGCACCGGCCTCCGTCGTGAGCGGTCCCTGCGTCACGTGCGCCTCCTGCGTCATTCCTGCAAGTCCTGTCCCTTGGCCAATGCCGGTCACGATCCTACAATGGACAATGTCTAAGTCAAGTAAAGCTCCAAAGTCACACCCGTTCGGGAACTGGTCCCCCTACTGTTAGGCTTGTCTGTATGAGTGACCTACTGGAACGACTGCGC (double strand) [catR_katA1_int]”, the binding was “binds”.
